Assay results: the RNAGym collection of RNA variant scans (doi:10.1093/nar/gkz1192)
The source gives no read counts; variants with many changes may rest on few reads.

B1: CPEB3 Ribozyme (parent)
chain: UAACAGGGGGCCACAGCAGAAGCGUUCACGUCGCAGCCCCUGUCAGAUUCUGGUGAAUCUGCGAAUUCUGCUGUAUAUCUC

Variants of: B1
Assay: self-cleavage, relative activity (ratio to wild type); higher = more cleavage; in vitro, sequencing
Procedure, shortened: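 Libraries of CPEB3 self-cleaving ribozyme mutants came from rounds of error-prone PCR and carried barcodes, which DNA sequencing matched to variants. In vitro transcription used T7 RNA polymerase at 37°C for 5 hours, with a further 15 min in DNase I before EDTA stopped the reaction; the ribozymes cleaved during both steps. The RNA was reverse transcribed with template switching and sequenced on Illumina. Relative activity is the cleaved/total read fraction of a variant divided by that of the unmutated ribozyme, averaged over three batches with at least 5 reads.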

Row | Variant | self-cleavage
1 | A35G C38U U72C | 1.45
2 | A35G C39U G46A A64G | 0.43
3 | A35G C39U U41C U54G A57U | 1.13
4 | A35G C40A A45G | 0.63
5 | A35G C40U U51C U67C U74C | 0.49
6 | A35G C50U A75G U78C | 1.47
7 | A35G C50U U54A | 1.2
8 | A35G C68G U69C C79A | 0.99
9 | A35G C68U U72C | 1.21
10 | A35G G36A A45G U58C | 0.19
11 | A35G G36A A47C U49C U60G | 0.08
12 | A35G G36A C38U A64G U74C U78G | 0.39
13 | A35G G42U C71A | 0.12
14 | A35G G46A U54A | 1.03
15 | A35G G46U A57G | 0.33
16 | A35G G52A A64U G70A U80A | 0.45
17 | A35G G53A U54C U80C | 1.26
18 | A35G G63A U69C U72C | 0.74
19 | A35G G63U A65G | 1.25
20 | A35G U41A A45U U54A | 0.11
21 | A35G U41A A45U U78G | 0.1
22 | A35G U41A G42U U54C U60A | 0.14
23 | A35G U41A U43C U72C | 0.16
24 | A35G U41A U48C G63A U72C | 0.2

Row | Variant | self-cleavage
25 | A35G U41C A45G U54C U74G | 1.29
26 | A35G U41C A56C | 1.24
27 | A35G U41C A56G A64U A65G U69C U80C | 0.45
28 | A35G U41C A57U A65G | 0.86
29 | A35G U41C G55C | 1.13
30 | A35G U41C U43A G61A | 0.36
31 | A35G U41C U49C | 1.05
32 | A35G U41C U51A | 1.21
33 | A35G U41C U54C A64U | 0.97
34 | A35G U41C U60C U76A | 1.08
35 | A35G U43A U58C | 1.2
36 | A35G U43C A56G U60C U69A A75G | 0.14
37 | A35G U43C C44U U69C | 0.23
38 | A35G U43C G53A U69C | 0.97
39 | A35G U43C U51C A64G U76C | 1.08
40 | A35G U43C U72C | 1.23
41 | A35G U43G U80G | 0.08
42 | A35G U48A A75U | 1.13
43 | A35G U48C U67C | 0.52
44 | A35G U48C U76C | 1.23
45 | A35G U48C U78A | 0.8
46 | A35G U49A U72C | 1.08
47 | A35G U49C G55A U66A U74A | 0.45
48 | A35G U49C U54C | 1.03

Row | Variant | self-cleavage
49 | A35G U49C U54C U60C | 0.31
50 | A35G U49C U58A | 0.39
51 | A35G U49C U80A | 0.93
52 | A35G U51A U58C C62A | 0.59
53 | A35G U51C A56U | 1.27
54 | A35G U51C A57G U78A U80C | 1.3
55 | A35G U51C C62A | 0.48
56 | A35G U51C U78C | 1.26
57 | A35G U51G U58C U78A | 1.11
58 | A35G U54A A57G A75U | 1.28
59 | A35G U54A U69A | 1.23
60 | A35G U54A U78A | 1.29
61 | A35G U54A U78C | 1.25
62 | A35G U54C A75G | 1.29
63 | A35G U54C U69C U76C U80A | 1.13
64 | A35G U54C U80C | 1.28
65 | A35G U54G U67C | 0.63
66 | A35G U58A U74A | 1.35
67 | A35G U58C A64G U66C U74A | 0.64
68 | A35G U58C U69C | 0.82
69 | A35G U58C U78A | 1.25
70 | A35G U60A A64U | 0.44
71 | A35G U60A A75C U80C | 1.24
72 | A35G U60C U69A | 0.87

Row | Variant | self-cleavage
73 | A35G U66C U80A | 1.25
74 | A35G U67A U69A | 0.45
75 | A35G U67A U78G | 1.27
76 | A35G U67C U69C | 0.46
77 | A35G U74A U78A | 1.3
78 | A35U A45G A56C A57U U80C | 0.12
79 | A35U A45G U48C C62U A77G | 0.08
80 | A35U A45G U49A U67A U78C | 0.09
81 | A35U A45G U49C U72C | 0.1
82 | A35U A45G U60A | 0.14
83 | A35U A45G U60C C62U | 0.12
84 | A35U A45G U80C | 0.3
85 | A35U A45U U48A A64G A75U | 0.02
86 | A35U A45U U58G | 0.08
87 | A35U A45U U66A | 0.11
88 | A35U A47G U51A | 0.52
89 | A35U A47G U69C U72C U74C A75G | 0.14
90 | A35U A56G U80C | 0.65
91 | A35U A56U U58C U72C | 0.12
92 | A35U A57U A64C | 0.07
93 | A35U A64U C71G | 0.12
94 | A35U A64U U66C U80A | 0.1
95 | A35U A64U U69C A75U U80C | 0.07
96 | A35U A64U U74C | 0.21

Row | Variant | self-cleavage
97 | A35U C37A U69C U78A | 0.08
98 | A35U C37U U43C U54C | 0.08
99 | A35U C37U U48C | 0.17
100 | A35U C38A U76C A77U | 0.06
101 | A35U C38G U48C U49C U51A U58C G73C | 0.05
102 | A35U C39A A65G U74C | 0.13
103 | A35U C39G C50U U66C | 0.06
104 | A35U C40A U78C | 0.15
105 | A35U C40G U67C | 0.12
106 | A35U C40U C44G U67C C79G | 0.12
107 | A35U C40U U67C | 0.08
108 | A35U C44A U58C C81A | 0.13
109 | A35U C62U U66C | 0.26
110 | A35U G36C A47G U49C | 0.22
111 | A35U G36C C59A | 0.17
112 | A35U G52A U72C | 0.85
113 | A35U G53A C59A | 0.14
114 | A35U G73C U78C | 1.02
115 | A35U U41A A64G | 0.32
116 | A35U U41A C44U A65G A77C U78A | 0.1
117 | A35U U41A U66A U69C | 0.06
118 | A35U U41C A45U U58C | 0.13
119 | A35U U41C U43A A45G U72C U74C | 0.27
120 | A35U U41C U51C | 0.39

Row | Variant | self-cleavage
121 | A35U U41G U49C U60G A65G U76C U80C | 0.12
122 | A35U U41G U74C | 0.64
123 | A35U U43A A57G | 0.35
124 | A35U U43A C44U A47U | 0.02
125 | A35U U43A U69C U74C | 0.24
126 | A35U U43C A45G U51A | 0.23
127 | A35U U43C A64U | 0.33
128 | A35U U43C U48C A64G | 0.23
129 | A35U U43C U49C A64U | 0.08
130 | A35U U43C U54C A64U U67C | 0.15
131 | A35U U48C A56G U60C G61A | 0.07
132 | A35U U48C A64G U74A | 0.15
133 | A35U U48C C62G | 0.11
134 | A35U U48C U54C | 0.2
135 | A35U U49C A57U | 0.16
136 | A35U U49C A65G U80A | 0.06
137 | A35U U49C G61U | 0.21
138 | A35U U49C U54C U72C U74C | 0.07
139 | A35U U49C U76C | 0.26
140 | A35U U49C U78C | 0.21
141 | A35U U49C U80C | 0.45
142 | A35U U51C A57U | 0.12
143 | A35U U51C C68U U72G | 0.55
144 | A35U U51C U60C | 0.13

Row | Variant | self-cleavage
145 | A35U U51C U60C U69A | 0.16
146 | A35U U51C U66C A75G | 0.46
147 | A35U U51G C71G | 0.19
148 | A35U U54A A56U U78C | 0.17
149 | A35U U54C U60C A64U U76C U78C | 0.11
150 | A35U U58A A65G U72A | 0.07
151 | A35U U58C U60C A64C U72C U76C | 0.15
152 | A35U U60C U66C | 0.13
153 | A35U U60C U72A | 0.31
154 | A35U U60G U67C U74C U80C | 0.13
155 | A35U U72C A75G | 0.78
156 | A35U U72C U80A | 0.27
157 | G36A C40A G42U | 0.07
158 | G36A U41C U48A A77G U78C | 0.05
159 | G36A U43A U60G | 0.18
160 | G36A U48A U78A | 0.05
161 | G36A U49C A57G A65C U72C | 0.1
162 | G36A U49C A64G U72A | 0.5
163 | G36A U49C U80C | 0.19
164 | G36A U51A U54C | 0.26
165 | G36A U54A A56G | 0.14
166 | G36A U60A A65G | 0.07
167 | G36A U69C G73A U76A | 0.05
